We go through 83 compounds from ChEMBL document CHEMBL4888484, “Replenishing the malaria drug discovery pipeline: Screening and hit evaluation of the MMV Hit Generation Library 1 (HGL1) against asexual blood stage Plasmodium falciparum ,using a nano luciferase reporter read-out” (2022).

In all, about 150,000 compounds went through this assay and about 540 (0.36%) showed an effect of 50% or more. The list shows a part of the results.

In the test the test system is Plasmodium falciparum. Nature of the test: Primary screen in NF54 nanoGlo assay, in single point, at 2uM, 72h; a lower Z score goes with more inhibition. It is filed as functional, Erythrocyte. To be noted: timepoint 72 hour.
Broadly, the % Inhibition is the relative decrease from the control value, in per cent. Take `Cn1nccc1-c1ccc(-c2cnn(-c3nnn[nH]3)c2)cc1`: the “% Inhibition” value worked out at 3% and the Z score is recorded as -0.47.
In the same order, the values of `COc1ccc(CN2CC[C@H](NC(=O)CCc3c(C)noc3C)C2)cn1` are -10% and 1.27.
With `Cc1ccccc1CCCNC(C)(C)C(=O)N(C)C`, the “% Inhibition” value is on record as -2% and the Z score turned out to be 0.33.
On to `COc1ccc(N2CCN(C(=O)Cn3c(-c4cccs4)cc4cc(Cl)ccc43)CC2)cc1`, for which the “% Inhibition” value was -2% and the Z score is 0.3.
The like results for `CCc1cc(N2CCN(C(=O)C[C@@H]3NC(=O)NC3=O)CC2)ncn1` were, in that order, 3% and -0.67.
In the same order, the values of `CCCN1C(=O)c2cc(S(=O)(=O)NC[C@H]3CCCO3)ccc2Oc2cccnc21` are 0% and -0.06.
In the same order, the values of `O=C(NCc1ccco1)c1ccccc1-c1ccccc1` are -6% and 0.75.
As for `CCc1cc(C(=O)N2CCCN(C(=O)CCc3ccc(OC)cc3)CC2)sc1C`, the “% Inhibition” value is -11% and the Z score came out at 1.17.
The like results for `Cn1cc(CN[C@H]2[C@H](O)[C@@H](n3cnc4ccccc43)[C@@H]3OC[C@H]2O3)cn1` were, in that order, -7% and 1.04.
For `C[C@H](NC(=O)COc1ccc(-c2nc3ccccc3s2)cc1CN(C)C)c1ccco1`, the “% Inhibition” value is 1% and the Z score is -0.11.
The like results for `CN(C1CCN(CC(F)(F)F)C1=O)C(CO)c1cccc(F)c1` (stereo unspecified) were, in that order, -6% and 1.14.
The like results for `CCn1ncc(CN(C)c2nccnc2OC)c1C` were, in that order, -1% and 0.18.
Regarding `CCC(=O)Nc1ccc(C)cc1-c1nc2ccccc2n(CC(=O)Nc2ccccc2Cl)c1=O`, the “% Inhibition” value is given as -5% and the Z score stood at 1.03.
The like results for `Cn1ccnc1C(NC(=O)C1CC(=O)N(c2ccccc2Cl)C1)c1ccc(Cl)cc1` (stereo unspecified) were, in that order, 13% and -1.8.
Take `Cc1cnc(CNC(CC2CCOC2)c2ccccc2)o1` (stereo unspecified): the “% Inhibition” value is on record as -16% and the Z score was found to be 2.33.
The like results for `Cc1noc(C)c1CC(=O)N1Cc2c(C(=O)NCc3cccnc3)nn(C)c2C1` were, in that order, -15% and 1.84.
In the same order, the values of `Cc1cc(C(=O)NC[C@H]2CCCN(C(=O)c3ccc4c(c3)CCO4)C2)no1` are -5% and 0.88.
In the same order, the values of `Nc1ncnc(N2CCCc3ccccc32)n1` are -15% and 2.26.
Consider `O=C(COc1ccc(Cl)cc1)NCc1ccc2c(c1)CCN2C(=O)c1ccccc1`, for which the “% Inhibition” value was -12% and the Z score is 2.31.
For the compound `C[C@@H](CN(C)c1nccnc1N(C)C)N1CCOCC1`, the “% Inhibition” value is reported as 4% and the Z score was -0.48.
In the same order, the values of `COc1ccc(NC(=O)Cn2c(C)nc3c(-c4ccncc4)nsc3c2=O)cc1Cl` are -6% and 0.87.
In the same order, the values of `CS(=O)(=O)[C@H]1CCCN(C(=O)c2cc(F)c(F)c(O)c2F)CC1` are 3% and -0.52.
In the same order, the values of `O=C(CN1CCOC1=O)N(CC1CCN(Cc2ccccc2F)CC1)C[C@H]1CCCO1` are -17% and 1.57.
Regarding `O=C(NCc1cccnc1-n1ccnc1)c1ccccc1Nc1cccc(C(F)(F)F)c1`, the “% Inhibition” value came to 11% and the Z score is listed as -2.02.
In the same order, the values of `CCc1cc(CN(C)C2CCC3(CC2)CCN(C(=O)N(C)C)CC3)on1` are -2% and 0.44.
In the same order, the values of `O=S1(=O)CCN(c2nc3cc(Cl)cc(Cl)c3o2)CCC12CCC2` are -10% and 0.94.
For the compound `CC(C)Cc1nc(CN(C)S(=O)(=O)[C@H]2CCS(=O)(=O)C2)no1`, the “% Inhibition” value is listed as -8% and the Z score was determined as 1.6.
For `Cc1cc(Cl)c(NC(=O)NCC(=O)NCC2CC2)cc1Cl`, the “% Inhibition” value is listed as -6% and the Z score was determined as 0.64.
The like results for `CO[C@@]12CC[C@H](OCCO)C[C@@H]1N(Cc1cn3cc(C)ccc3n1)CC2` were, in that order, -9% and 1.09.
As for `CC1(c2noc(-c3ccccc3)n2)CCN(C(=O)C2CCN(S(=O)(=O)N3CCOCC3)CC2)CC1`, the “% Inhibition” value was -16% and the Z score amounted to 2.06.
The like results for `CCc1cnc(CN(C)C(=O)c2cnn(C(C)(C)C)c2)s1` were, in that order, -9% and 1.13.
For `CC(C)C(=O)Nc1ccc(S(=O)(=O)NCC2CCN(S(=O)(=O)N(C)C)CC2)cc1`, the “% Inhibition” value was -12% and the Z score was determined as 1.43.
The like results for `CC(C)N(C)CC1CCN(C(=O)c2c[nH]c(C(F)(F)F)c2)CC1` were, in that order, -8% and 0.98.
In the same order, the values of `Cc1occc1C(=O)N1CCC[C@@](F)(c2nc(C3CC3)no2)C1` are -3% and 0.42.
Consider `CNc1nc(C(N)=O)c(NC(=O)COc2ccccc2OC)s1`, for which the “% Inhibition” value is listed as -15% and the Z score was determined as 1.41.
Consider `Cc1n[nH]c(C)c1CCCNC(=O)[C@@H]1Cc2ccccc2CN1C`, for which the “% Inhibition” value is listed as -7% and the Z score is 1.24.
With `CN(C)CCn1ccnc1C1CCN(C(=O)c2ccc3c(c2)CCC3)CC1`, the “% Inhibition” value is given as -15% and the Z score worked out at 1.94.
The like results for `CCOCCCNC(=O)[C@@H](c1ccc(C)cc1)N(Cc1ccc2c(c1)OCO2)C(=O)CNC(C)=O` were, in that order, -3% and 0.43.
The like results for `CCCCc1nc(-c2nc3cc4[nH]c(=O)[nH]c4cc3[nH]2)c[nH]1` were, in that order, 10% and -1.4.
In the same order, the values of `O=C(Cc1ccsc1)NCC1CCOCC1` are -4% and 0.66.
With `COCc1nccc(NC(=O)N2CCC(CCc3ccc(F)cc3F)CC2)n1`, the “% Inhibition” value was determined as 0% and the Z score turned out to be 0.08.
The like results for `O=C(NC1CCCC1)N1CCC(Oc2ccccc2F)(C(=O)O)CC1` were, in that order, -9% and 0.95.
The like results for `O=C([C@H]1CC(=O)N(c2ccccc2)C1)N1CC(c2nc(-c3ncccn3)no2)C1` were, in that order, 4% and -0.81.
In the same order, the values of `COc1ccc2[nH]c(CN[C@@H](C)Cn3cnc4ccccc4c3=O)cc2c1` are -18% and 1.94.
With `CN(Cc1ccccc1)C1(C(=O)N2CCC(O)CC2)Cc2ccccc2C1`, the “% Inhibition” value turned out to be 6% and the Z score is listed as -1.01.
In the same order, the values of `CCCS(=O)(=O)N1CCC[C@H]1c1nnc(C(=O)Nc2cccc(Cl)c2)s1` are -4% and 0.46.
The like results for `c1ccc(N2CCN(CCc3nnc4n3CCCC4)CC2)cc1` were, in that order, -4% and 0.61.
Consider `CC(CNC(=O)NC(C)C(C)CO)c1ccc(F)c(F)c1` (stereo unspecified), for which the “% Inhibition” value was -12% and the Z score is 1.8.
In the case of `O=C(O)c1cccc2c1OCCN(CCc1cccnc1)C2`, the “% Inhibition” value is -5% and the Z score was determined as 0.89.
In the same order, the values of `Cc1nnnn1CCCN1CC[C@]2(CCCO2)CCC1=O` are -5% and 0.8.
For the compound `COc1ccc(C2(O)c3ccccc3NC(=O)C2OC)cc1` (stereo unspecified), the “% Inhibition” value was found to be 4% and the Z score is -0.66.
The like results for `CCc1csc(CNC(=O)C[C@H]2CCOC2)n1` were, in that order, -14% and 1.79.
In the same order, the values of `Clc1ccc(CN2CC[C@H](C3CCN(c4ncnc5c4CCC5)CC3)C2)cc1` are -9% and 0.83.
The like results for `COCC1(CNC(=O)c2ccc(-c3ccnc(C(=O)O)c3)cc2)CCC1` were, in that order, -5% and 0.73.
Regarding `Cc1cc(CNc2nnc(CO)o2)cc(C)c1OCc1ccccc1Cl`, the “% Inhibition” value was found to be 1% and the Z score is given as -0.19.
In the same order, the values of `CCc1ncc(CN(C)C(=O)[C@@H](C)Cc2c(C)n[nH]c2C)s1` are -4% and 0.48.
The like results for `CCCc1nc(CS(=O)(=O)CCCCC#N)cs1` were, in that order, 24% and -2.53.
In the same order, the values of `c1ccc2c(c1)c(NCc1ccncc1)nn1cnnc21` are -11% and 1.26.
Consider `FC1(F)CCN(c2cc([C@H]3CCOC3)ncn2)CC1`, for which the “% Inhibition” value was -5% and the Z score is 1.02.
The like results for `C=CCCCNc1ccccc1C(=O)N(C)C` were, in that order, -3% and 0.44.
In the same order, the values of `CCC1(CO)CCN(C(=O)NC(C)C2CN(C)CCO2)CC1` (stereo unspecified) are -15% and 1.52.
In the case of `O=C(c1ccco1)N1CC[C@H]2[C@H](CCC(=O)N2Cc2cccc(F)c2)C1`, the “% Inhibition” value is -5% and the Z score amounted to 0.9.
The like results for `CNc1ccccc1C(=O)NCC1CCN(Cc2c[nH]cn2)CC1` were, in that order, -1% and 0.16.
For the compound `CCS(=O)(=O)Nc1cccc2c1CN(c1ccccn1)C2`, the “% Inhibition” value is recorded as -6% and the Z score was determined as 0.99.
In the same order, the values of `O[C@H]1CN(Cc2ccc(Cn3cccn3)cc2)C[C@@H]1N1CCN(c2ccccn2)CC1` are -18% and 1.68.
Consider `Cc1cc(N2C(=O)CCS2(=O)=O)ccc1S(=O)(=O)Nc1cccc2cccnc12`, for which the “% Inhibition” value was -3% and the Z score is on record as 0.45.
On to `COc1cccc(CC(=O)Nc2cc(C)ccc2N2CCCN(Cc3cccc(OC(F)(F)F)c3)C2=O)c1`, for which the “% Inhibition” value turned out to be 1% and the Z score is reported as -0.09.
For `Cc1ccoc1C(=O)NC[C@H](C)NC(=O)OC(C)(C)C`, the “% Inhibition” value stood at 0% and the Z score is on record as -0.02.
In the same order, the values of `c1ccc2c(c1)CCC[C@H]2c1nnn[nH]1` are -23% and 2.15.
The like results for `CNCC(=O)N1CCc2onc(C(c3ccccc3)c3ccccc3)c2C1` were, in that order, -16% and 1.82.
In the same order, the values of `CCn1ccc(C(=O)N2CCC(Cc3ncc(C)n3CC3CC3)CC2)n1` are -14% and 1.99.
For `CNC/C=C/COc1ccccc1OC`, the “% Inhibition” value is given as -9% and the Z score was determined as 0.98.
In the case of `O=C(c1noc2c1CCCC2)N1CCCc2ccccc21`, the “% Inhibition” value amounted to 0% and the Z score is 0.07.
The like results for `C[C@@H](CNC(=O)Nc1ccc(C(C)(C)C)nn1)c1nccs1` were, in that order, -5% and 0.77.
In the same order, the values of `Cc1nnc(C2CCN(CC(=O)N3CC(C)OC(C)C3)CC2)s1` (stereo unspecified) are -7% and 0.79.
The like results for `O=C1NC(=O)C2(CCN(C(=O)c3cccc(Oc4ccccc4)c3)CC2)N1` were, in that order, -1% and 0.12.
Regarding `CC(=O)c1ccc(N2C[C@@H]3OC(=O)N(CCCN4CCOCC4)[C@@H]3C2)nc1`, the “% Inhibition” value was 12% and the Z score was -1.39.
The like results for `CC(=O)N(C)c1ccc(S(=O)(=O)NC[C@H]2Cc3ccccc32)cc1` were, in that order, 0% and -0.01.
On to `CC1(C)CS(=O)(=O)N(c2cccc(C(=O)Nc3ccc4c(c3)OCO4)c2)C1=O`, for which the “% Inhibition” value was -9% and the Z score amounted to 1.11.
Take `O=C(c1cc2n(n1)CCN(Cc1ccc(C(F)(F)F)cc1)C2=O)N1CCCCC1`: the “% Inhibition” value is reported as -13% and the Z score turned out to be 1.62.
The like results for `CNc1ccccc1-c1ccccc1NC` were, in that order, -12% and 1.8.
Turning to `Cn1cncc1CCN1CCC[C@H](NC(=O)OC(C)(C)C)C1`, the “% Inhibition” value is given as -12% and the Z score is 1.84.
On to `O=C(c1cc2ccccc2[nH]1)N1CC[C@@]2(C1)NC(=O)N(Cc1ccc(F)cc1)C2=O`, for which the “% Inhibition” value is listed as 9% and the Z score is -1.14.
